Test results reported in article PMC4336329 (PLoS ONE, 2015).
The whole screen tested about 310,000 compounds, of which about 14,000 (4.5%) showed an effect of 50% or more. The effect is printed as a negative number. This is one part of the list.

Target: human ether-à-go-go-related gene (hERG) potassium channel (human, UniProt Q12809)
Experiment: primary screen, population patch clamp on CHO cells stably expressing hERG
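Also: peak tail current of the secondary pulse compared with the same well before compound.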

Chain of human ether-à-go-go-related gene (hERG) potassium channel (Q12809 whole entry, looked up): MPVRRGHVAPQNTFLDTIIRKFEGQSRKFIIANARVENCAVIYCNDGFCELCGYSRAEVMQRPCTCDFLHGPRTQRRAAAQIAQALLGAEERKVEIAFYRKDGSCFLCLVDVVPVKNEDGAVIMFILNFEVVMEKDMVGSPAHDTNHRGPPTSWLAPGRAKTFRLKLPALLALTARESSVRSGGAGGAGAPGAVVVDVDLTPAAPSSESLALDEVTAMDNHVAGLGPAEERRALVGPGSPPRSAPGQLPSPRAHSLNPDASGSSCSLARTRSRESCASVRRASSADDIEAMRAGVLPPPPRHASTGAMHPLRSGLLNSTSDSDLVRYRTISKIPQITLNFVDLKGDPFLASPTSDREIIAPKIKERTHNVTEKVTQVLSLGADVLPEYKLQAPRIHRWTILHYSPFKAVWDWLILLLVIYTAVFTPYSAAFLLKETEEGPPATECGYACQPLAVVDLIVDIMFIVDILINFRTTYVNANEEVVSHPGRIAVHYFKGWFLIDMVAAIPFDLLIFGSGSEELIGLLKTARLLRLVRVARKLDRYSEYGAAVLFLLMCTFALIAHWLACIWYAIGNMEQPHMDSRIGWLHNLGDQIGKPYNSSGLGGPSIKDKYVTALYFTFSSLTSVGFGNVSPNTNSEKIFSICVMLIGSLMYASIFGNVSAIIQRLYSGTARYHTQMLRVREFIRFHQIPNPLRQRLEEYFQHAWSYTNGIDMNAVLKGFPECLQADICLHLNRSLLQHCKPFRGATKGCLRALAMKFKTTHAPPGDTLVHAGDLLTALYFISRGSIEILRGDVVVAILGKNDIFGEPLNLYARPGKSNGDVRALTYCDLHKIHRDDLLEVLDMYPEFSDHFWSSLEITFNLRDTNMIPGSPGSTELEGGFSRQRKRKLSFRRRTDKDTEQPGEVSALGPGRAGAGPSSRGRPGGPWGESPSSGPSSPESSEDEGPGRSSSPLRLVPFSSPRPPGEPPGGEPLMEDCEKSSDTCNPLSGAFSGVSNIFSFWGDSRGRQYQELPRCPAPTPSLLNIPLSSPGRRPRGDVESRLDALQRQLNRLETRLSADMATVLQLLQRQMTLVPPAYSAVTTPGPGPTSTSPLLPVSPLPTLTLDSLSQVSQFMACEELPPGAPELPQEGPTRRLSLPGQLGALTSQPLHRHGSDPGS

Compared with `COc1ccccc1NC(=O)C1=C(C)NC2=C(C(=O)CCC2)C1c1ccc2c(c1)OCO2` (stereo not drawn), `COC(=O)C1=C(C(=O)c2ccccc2)C(c2ccc(O)c(OC)c2)n2nnnc2N1` (stereo not drawn) is higher in “hERG current change (%, negative = inhibition) at 10uM” value: -17.7% for the first, 11.5% for the second.

Going from `O=[N+]([O-])c1cc(Br)c(Nc2ccccc2)c([N+](=O)[O-])c1` to `Cc1cc(C)c(C#N)c(Nc2ccccc2)n1`, the “hERG current change (%, negative = inhibition) at 10uM” value falls from 8.13% to -3.13%.

Going from `Cc1cc(OCC(=O)NCc2ccncc2)c2c(C)c(C)c(=O)oc2c1` to `CCc1cc(=O)oc2cc(C)cc(OC(C)C(=O)NCC(O)c3ccccc3)c12` (stereo not drawn), the “hERG current change (%, negative = inhibition) at 10uM” value rises from -40.6% to 4.7%.

First: O=C(NCCCn1ccnc1)C(=O)NCC(c1cccnc1)N1CCN(c2ccc(F)cc2)CC1 (stereo not drawn)
Second: Cl.O=C(NCCCn1ccnc1)c1ccc(F)cc1
The “hERG current change (%, negative = inhibition) at 10uM” value of the first is lower: -2.97% for the first, -2.81% for the second.

First: COc1ccccc1NC(=O)CSc1nnc(-c2ccccn2)o1
Second: COc1ccc(NC(=O)CSc2ncnc3c2cnn3CCc2ccccc2)cc1
The “hERG current change (%, negative = inhibition) at 10uM” value of the first is higher: 12.7% for the first, -4.31% for the second.

First: CC(CCc1ccccc1)NC(=O)COc1ccc(S(=O)(=O)N2CCOCC2)cc1[N+](=O)[O-] (stereo not drawn)
Second: O=C(Nc1nc2ccccc2s1)C1CCCN1S(=O)(=O)c1ccc(Cl)cc1 (stereo not drawn)
The “hERG current change (%, negative = inhibition) at 10uM” value of the first is lower: -24.8% for the first, -7.55% for the second.

Going from `c1cnc2c(OCc3cn4cccnc4n3)cccc2c1` to `O=C(OCc1csc(-c2ccccc2)n1)c1cccs1`, the “hERG current change (%, negative = inhibition) at 10uM” value falls from 11.4% to -1.71%.

Going from `CCCCc1nc(C(N)=O)c2[nH]c(=O)n(-c3ccc(OCC)cc3)c2n1` to `CCOc1ccc(N=Nc2c(=O)[nH]n3c(=O)cc(C)[nH]c23)cc1`, the “hERG current change (%, negative = inhibition) at 10uM” value falls from -4.95% to -7.81%.

Compared with `CC(=O)Nc1ccc(S(=O)(=O)N2C(=O)c3cccc4cccc2c34)cc1`, `NNC(=O)c1ccc(S(=O)(=O)N2CCc3ccccc32)cc1` is higher in “hERG current change (%, negative = inhibition) at 10uM” value: -9.5% for the first, 14.7% for the second.

Compared with `CCN1CCN(S(=O)(=O)c2ccc(Cl)c(C(=O)N(C)Cc3cccs3)c2)CC1`, `CS(=O)(=O)N1CCN(C(=O)Cc2cccs2)CC1` is higher in “hERG current change (%, negative = inhibition) at 10uM” value: -14.6% for the first, 16.8% for the second.

Going from `CC(=O)N1CCN(C(=O)c2ccc(OC3CCN(Cc4ccccn4)CC3)cc2)CC1` to `Cc1c(CN2CCC(Oc3ccc(C(=O)N4CCCCC4)cc3)CC2)cnn1C`, the “hERG current change (%, negative = inhibition) at 10uM” value falls from 17.9% to -0.372%.

Going from `Cc1nc(Nc2ccccc2C(F)(F)F)sc1C(=O)N(C)C` to `O=C(Nc1cccc(C(F)(F)F)c1)c1ccc(Cn2cc(Br)cn2)o1`, the “hERG current change (%, negative = inhibition) at 10uM” value falls from 21.7% to -26.3%.

First: Cc1ccc([N+](=O)[O-])c(OCCCNCC(C)O)c1.O=C(O)C(=O)O (stereo not drawn)
Second: Cc1cccc(OCC(=O)Nc2cccc(C(=O)NCC(C)C)c2)c1
The “hERG current change (%, negative = inhibition) at 10uM” value of the first is higher: 2.13% for the first, -17.4% for the second.

First: Cc1cc(NC(=O)CC2CCCC2)ccc1Br
Second: Cc1cc(NC(=O)CSc2nc(CCC3CCCC3)nc3ccccc23)no1
The “hERG current change (%, negative = inhibition) at 10uM” value of the first is higher: 7.51% for the first, -19.1% for the second.

First: COc1ccc(-c2cc(C(=O)NCCCN3CCOCC3)c3cc(C(C)C)ccc3n2)cc1
Second: Cc1cc(C)c2nc(-c3ccccn3)cc(C(=O)NCCc3ccc(S(N)(=O)=O)cc3)c2c1
The “hERG current change (%, negative = inhibition) at 10uM” value of the first is lower: -3.68% for the first, 17.2% for the second.

Going from `O=C(NCc1cccnc1)C1CC(c2cccc(Br)c2)=NO1` (stereo not drawn) to `CC(=O)Nc1ccc2oc(-c3ccccc3)nc2c1`, the “hERG current change (%, negative = inhibition) at 10uM” value rises from -1.37% to 18.1%.

First: Cc1cccc(N2CCN(c3ccc4cc(S(=O)(=O)N5CCCCC5)ccc4n3)CC2)c1C
Second: COc1ccc(C2(C(=O)Nc3ccc(S(=O)(=O)Nc4nc(C)cc(C)n4)cc3)CCCC2)cc1OC
The “hERG current change (%, negative = inhibition) at 10uM” value of the first is higher: 18.2% for the first, -0.893% for the second.

First: CC(=O)/C=C1\N(C)c2ccc(C)cc2C1(C)C
Second: CC(=O)c1c(C)nn(CC(O)COc2ccc3c(c2)CCC3)c1C (stereo not drawn)
The “hERG current change (%, negative = inhibition) at 10uM” value of the first is higher: 4.27% for the first, 2.55% for the second.

First: COc1cccc(/C=N/NC(=O)NC2CCCCC2)c1O
Second: COCCn1nnnc1CN1CCC(NC(=O)Nc2cccc(OC)c2)CC1
The “hERG current change (%, negative = inhibition) at 10uM” value of the first is lower: 3.19% for the first, 8.3% for the second.

First: COC(=O)c1nn(-c2ccccc2)c(Cl)c1/C=N/O
Second: Cn1c(N)c(C(=O)Nc2ccccc2)c(=O)[nH]c1=O
The “hERG current change (%, negative = inhibition) at 10uM” value of the first is higher: 9.89% for the first, 8.83% for the second.

Going from `CCOc1ccc(CC(=O)Nc2ccc(S(=O)(=O)Nc3cc(C)on3)cc2)cc1OCC` to `Cc1cc(-c2ccc(S(=O)(=O)NCc3ccc(F)cc3)cc2)on1`, the “hERG current change (%, negative = inhibition) at 10uM” value falls from 11.7% to -5.39%.

First: COc1cccc(-c2nn(-c3ccccc3)cc2CN(C)C(C)c2ccon2)c1 (stereo not drawn)
Second: CCc1ccccc1-n1nnc(-c2ccccc2)n1
The “hERG current change (%, negative = inhibition) at 10uM” value of the first is lower: -2.83% for the first, -0.113% for the second.

Going from `COc1ccc(/C(N)=N/OC(=O)N2CCOCC2)cc1` to `Cc1cc(Br)ccc1NC(=O)CN(C)C(=O)c1cc([N+](=O)[O-])ccc1N1CCOCC1`, the “hERG current change (%, negative = inhibition) at 10uM” value falls from -28.8% to -41.9%.

Going from `CC(C)c1[nH]nc2c1C(c1cccs1)C(C#N)=C(N)O2` (stereo not drawn) to `Cc1c(CCC(=O)O)c(=O)n2c([nH]c3ccccc32)c1C#N`, the “hERG current change (%, negative = inhibition) at 10uM” value falls from 16% to -3.61%.

Going from `CCOc1ccc(NC(=O)CCNc2c(N3CCCC3)c(=O)c2=O)cc1` to `CCOc1ccc(OCC)c(NC(=O)C2CCN(S(=O)(=O)c3c(C)[nH]c(=O)[nH]c3=O)CC2)c1`, the “hERG current change (%, negative = inhibition) at 10uM” value falls from 10.8% to 7.51%.

Going from `COC(=O)c1ccc(OC(=O)CCS(=O)(=O)c2ccc(C)cc2)cc1` to `CCCCNC(=O)c1ccc(NS(=O)(=O)c2ccccc2)cc1`, the “hERG current change (%, negative = inhibition) at 10uM” value rises from -16.4% to 11.1%.

First: O=C(NNC(=O)c1cc(Cl)ccc1[N+](=O)[O-])c1csc(N2CCOCC2)n1
Second: COC(=O)c1[nH]c2ccc(Cl)cc2c1NC(=O)C1CC1
The “hERG current change (%, negative = inhibition) at 10uM” value of the first is lower: 10.5% for the first, 17.1% for the second.

Going from `Cc1cc(SCC(=O)NCCN2C(=O)CSC2=O)nc2ccccc12` to `O=C1CCC(C(=O)NCCN2C(=O)S/C(=C\c3cccnc3)C2=O)=NN1`, the “hERG current change (%, negative = inhibition) at 10uM” value falls from 7.59% to 2.26%.

Going from `CCC(C)NC(=O)Cn1c(COc2ccc(Cl)cc2Cl)nc2ccccc21` (stereo not drawn) to `Cc1c(CNCCc2ccc(Cl)cc2)c(C(=O)O)c(C)n1Cc1ccccc1`, the “hERG current change (%, negative = inhibition) at 10uM” value falls from 12% to -50.1%.

Compared with `CCC1CCCCN1C(=O)CSc1nc(N)c(NC(=O)c2ccc(OC)c(OC)c2)c(=O)[nH]1` (stereo not drawn), `COc1ccc(OC)c(NC(=O)Cn2c(=O)n(CC3CCCO3)c(=O)c3cc(OC)c(OC)cc32)c1` (stereo not drawn) is lower in “hERG current change (%, negative = inhibition) at 10uM” value: 4.63% for the first, -2.77% for the second.

First: CCC(CO)NCc1cc(OC)c(OCC(=O)NCCc2ccccc2)cc1Br (stereo not drawn)
Second: CC(=O)Nc1cccc(C(=O)N(Cc2ccccc2)Cc2ccccc2)c1
The “hERG current change (%, negative = inhibition) at 10uM” value of the first is lower: -19.4% for the first, 3.97% for the second.

Going from `Cn1c(=O)c2[nH]c(-c3ccc(S(=O)(=O)O)cc3)nc2n(C)c1=O.O` to `CCCCN(CC)CCNC(=O)CN(C)S(=O)(=O)c1ccc2c(c1)c(=O)n(C)c(=O)n2C`, the “hERG current change (%, negative = inhibition) at 10uM” value falls from 10.2% to 7.42%.

Compared with `Cc1ccc(-n2c(-c3ccc(Cl)cc3)n[nH]c2=S)cc1`, `Cc1ccc(CN2C(=O)CC(Nc3ccc(N4CCOCC4)cc3)C2=O)cc1` (stereo not drawn) is lower in “hERG current change (%, negative = inhibition) at 10uM” value: 10% for the first, 5.8% for the second.

First: COc1cc(OC)cc(C(=O)NNC(=S)NC(=O)c2cccnc2)c1
Second: CC(=O)c1ccc(OCCCC(=O)Nc2cc(Cl)ccc2-n2cncn2)cc1
The “hERG current change (%, negative = inhibition) at 10uM” value of the first is higher: 14.4% for the first, -18.1% for the second.

First: Cc1ccsc1/C=N/N1CCN(Cc2ccccc2)CC1
Second: COc1ccccc1/C=C/CN1CCSCC1
The “hERG current change (%, negative = inhibition) at 10uM” value of the first is higher: 9.07% for the first, -3.74% for the second.

First: O=C1c2ccccc2C(=O)N1CC(O)COc1ccccc1Cl (stereo not drawn)
Second: COc1cccc(OCC(O)CN2CCC(CN3C(=O)c4cccc5cccc(c45)C3=O)CC2)c1.Cl (stereo not drawn)
The “hERG current change (%, negative = inhibition) at 10uM” value of the first is higher: 5.7% for the first, -72.3% for the second.

Compared with `CC(C)(C)NC(=O)C(c1c[nH]c2ccccc12)N(C(=O)Cn1nnc(-c2ccc(Cl)cc2)n1)c1ccccc1F` (stereo not drawn), `O=C(CC1SC(=NCCc2ccccc2)N(/N=C/c2cccs2)C1=O)Nc1ccc(Cl)cc1` (stereo not drawn) is higher in “hERG current change (%, negative = inhibition) at 10uM” value: 7.15% for the first, 19.8% for the second.

Compared with `CCN(C(=O)COC(=O)/C=C/c1c(C)nn(Cc2ccc(C)cc2)c1C)C1CCS(=O)(=O)C1` (stereo not drawn), `CCN(CC)C(=O)CC(c1ccc(N(C)C)cc1)c1c(OC)cc(OC)c2ccc(=O)oc12` (stereo not drawn) is higher in “hERG current change (%, negative = inhibition) at 10uM” value: -7.41% for the first, -2.87% for the second.

First: CCOC(=O)Cc1cnc(NC(=O)CSc2nc(N)cc(=O)[nH]2)s1
Second: CCCNC(=O)Cn1cnc2sc(C(=O)Nc3ccc4c(c3)OCO4)c(C)c2c1=O
The “hERG current change (%, negative = inhibition) at 10uM” value of the first is higher: 30.6% for the first, 5.53% for the second.

First: CCC(=O)NC(Nc1ncc(C)s1)(C(=O)OC)C(F)(F)F (stereo not drawn)
Second: CCOP(=O)(OCC)C(C)(C)NC(=O)C(Cl)(Cl)Cl
The “hERG current change (%, negative = inhibition) at 10uM” value of the first is lower: -2.4% for the first, 12.1% for the second.

First: O=C(NCCN1CCCCC1)/C(=N\O)c1ccccc1
Second: O=C1CCC(C(=O)N(CCO)Cc2ccccc2)CN1CC1CCCCC1 (stereo not drawn)
The “hERG current change (%, negative = inhibition) at 10uM” value of the first is lower: 5.35% for the first, 11.7% for the second.

Compared with `Fc1ccc(COc2ccc(-c3nnco3)cc2)c(Cl)c1`, `FC(F)(F)c1ccncc1-c1nnnn1-c1ccc(Cl)cc1` is lower in “hERG current change (%, negative = inhibition) at 10uM” value: -0.85% for the first, -42.3% for the second.

First: O=c1[nH]c(=S)n(CCC2=CCCCC2)c(O)c1/C=N/Nc1ccccc1
Second: O=C(CSc1nc2ccc(Cl)cc2[nH]1)Nc1ccc2c(c1)CCC2
The “hERG current change (%, negative = inhibition) at 10uM” value of the first is lower: -7.83% for the first, 15.7% for the second.

In the case of `CC1CCCC(C2(O)C(=O)Nc3ccccc32)C1=O` (stereo not drawn), the “hERG current change (%, negative = inhibition) at 10uM” value is reported as 23.4%.
